Assay results published in the supplement of paper PMC3334620.
In all, about 33,000 sequences were measured (“E-score (-0.5 to 0.5)”: median about -0.054, highest 2% from about 0.35 on). This is one part of the list.

What follows are sequences tested against T1, Stb5 (UniProt P38699) (assay: PBM E-score (8-mer binding enrichment) (E-score (-0.5 to 0.5)); higher = stronger / more preferred TF binding; most listed sequences are background and not binding sites). Details: protein concentration: 200 nM; construct: GST-full length.
T1 sequence: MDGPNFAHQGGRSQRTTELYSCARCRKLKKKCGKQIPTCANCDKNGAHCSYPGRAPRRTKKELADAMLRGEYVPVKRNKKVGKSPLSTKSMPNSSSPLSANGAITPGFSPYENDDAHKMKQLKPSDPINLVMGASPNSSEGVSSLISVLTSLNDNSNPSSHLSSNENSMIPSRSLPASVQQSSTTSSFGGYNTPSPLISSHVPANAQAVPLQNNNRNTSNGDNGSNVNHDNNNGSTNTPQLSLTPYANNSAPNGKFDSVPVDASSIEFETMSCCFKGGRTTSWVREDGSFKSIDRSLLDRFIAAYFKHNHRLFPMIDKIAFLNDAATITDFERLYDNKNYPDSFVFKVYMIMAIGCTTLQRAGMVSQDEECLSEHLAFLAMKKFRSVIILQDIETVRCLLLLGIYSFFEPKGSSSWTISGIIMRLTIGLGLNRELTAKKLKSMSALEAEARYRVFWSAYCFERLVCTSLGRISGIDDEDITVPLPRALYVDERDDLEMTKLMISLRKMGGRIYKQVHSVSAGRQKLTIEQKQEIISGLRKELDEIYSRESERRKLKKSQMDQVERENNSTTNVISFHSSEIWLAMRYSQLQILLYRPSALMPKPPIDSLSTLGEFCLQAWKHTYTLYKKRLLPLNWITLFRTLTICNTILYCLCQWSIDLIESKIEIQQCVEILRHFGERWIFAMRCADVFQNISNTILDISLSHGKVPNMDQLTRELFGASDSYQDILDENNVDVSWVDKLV
Outline: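 Bound GST-tagged yeast transcription factors, applied at about 100-200 nM to double-stranded universal all-10-mer Agilent arrays, were detected with fluorescent anti-GST. Scans were normalised with masliner. A modified Wilcoxon-Mann-Whitney statistic, the E-score, was assigned to each ungapped eight-base word pooled with its reverse complement by the Universal PBM Analysis Suite.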

Compared with GTAGCTAC, AGCAGTAG is higher in “PBM E-score” value: -0.258 for the first, -0.185 for the second.

Going from AATGGTCC to CCGCCTAG, the “PBM E-score” value rises from 0.0798 to 0.117.

Going from AGACCAGA to AAGCGCAA, the “PBM E-score” value rises from -0.27 to -0.0146.

Compared with CACATTAG, ATTGCTAA is higher in “PBM E-score” value: -0.207 for the first, -0.119 for the second.

Compared with CGGAACTA, GGATATCC is lower in “PBM E-score” value: 0.44 for the first, 0.131 for the second.

Compared with AGACGACT, GAATATCC is higher in “PBM E-score” value: -0.215 for the first, 0.161 for the second.

First: ACGCAACT
Second: CTTGGATC
The “PBM E-score” value of the first is higher: -0.0791 for the first, -0.119 for the second.

Compared with CGGTGGAA, AGGGAAAG is lower in “PBM E-score” value: 0.233 for the first, -0.276 for the second.

Compared with GAAGATAA, AACTTAAG is higher in “PBM E-score” value: -0.0198 for the first, 0.123 for the second.

Compared with CAAGTCAG, GAACTGCC is higher in “PBM E-score” value: -0.17 for the first, -0.118 for the second.

Compared with ATGGAGTC, GACCGATA is higher in “PBM E-score” value: -0.0879 for the first, 0.249 for the second.

Compared with ATCTGCGA, CCCGATCG is higher in “PBM E-score” value: -0.118 for the first, 0.346 for the second.

Going from AGCACTAG to GCAGATAC, the “PBM E-score” value rises from -0.135 to 0.00269.

Compared with CTGATATA, GTTCATCA is lower in “PBM E-score” value: 0.0517 for the first, -0.136 for the second.

Compared with ACGACTCT, CGATCACC is higher in “PBM E-score” value: -0.275 for the first, 0.0687 for the second.

First: CTGCGAAA
Second: AGCTGACT
The “PBM E-score” value of the first is higher: -0.0664 for the first, -0.135 for the second.

First: CTGTAGTA
Second: CATCTGGA
The “PBM E-score” value of the first is lower: -0.043 for the first, 0.0546 for the second.

Going from CCGGCGTA to CCTTCGAG, the “PBM E-score” value falls from 0.345 to -0.0947.

Going from GATTTTTA to GATAGCCC, the “PBM E-score” value falls from 0.144 to -0.0423.

Going from AACGTGCA to AACCGTGC, the “PBM E-score” value rises from -0.274 to -0.0876.

Going from ACATTCTA to CCAATAGA, the “PBM E-score” value falls from -0.138 to -0.222.

Going from CGATACCA to GGGTATAA, the “PBM E-score” value rises from -0.111 to 0.299.

Going from CTGACTAA to CGGTAGCC, the “PBM E-score” value falls from 0.0132 to -0.00942.

Going from GAAGAATC to CTGTATCA, the “PBM E-score” value falls from 0.0713 to -0.168.

Going from ATTGTTGG to AGTGGGAA, the “PBM E-score” value rises from -0.0204 to 0.007.

First: CACTCTGA
Second: CAGTTCGA
The “PBM E-score” value of the first is lower: -0.0883 for the first, -0.059 for the second.

First: GACTACCA
Second: CCGGGTAA
The “PBM E-score” value of the first is lower: -0.0395 for the first, 0.212 for the second.

Going from GAGGCTGC to CGAGCCCC, the “PBM E-score” value rises from -0.213 to -0.0284.

Going from AGCAATAG to GTTCCTCA, the “PBM E-score” value falls from 0.0872 to -0.0537.

First: ACCGTGCG
Second: CGGCTTAA
The “PBM E-score” value of the first is lower: 0.27 for the first, 0.351 for the second.

Going from AACATACA to AGAGGCTA, the “PBM E-score” value falls from 0.102 to -0.136.

Compared with GTAGGCAA, ACGTCGTG is higher in “PBM E-score” value: -0.246 for the first, -0.178 for the second.

First: GATCTACC
Second: CCCCACAG
The “PBM E-score” value of the first is higher: -0.0916 for the first, -0.245 for the second.

Compared with CCCGGGTA, AAACGTTG is lower in “PBM E-score” value: 0.101 for the first, -0.259 for the second.

First: AGCATCGC
Second: GACTCCTA
The “PBM E-score” value of the first is higher: 0.0104 for the first, -0.257 for the second.

First: AGCGTATG
Second: AACGACTT
The “PBM E-score” value of the first is higher: -0.0246 for the first, -0.163 for the second.

Compared with CTTAGAAG, CATTCTAC is higher in “PBM E-score” value: -0.246 for the first, -0.0787 for the second.

Compared with CAATACTA, CAGTCATG is higher in “PBM E-score” value: -0.205 for the first, -0.174 for the second.

Going from GATTTATA to CGGGCTGC, the “PBM E-score” value falls from 0.2 to 0.0125.

First: CTGGCTAC
Second: CACATATG
The “PBM E-score” value of the first is lower: -0.281 for the first, -0.222 for the second.

Compared with ACAATCCT, ATGTGTCA is lower in “PBM E-score” value: -0.0886 for the first, -0.122 for the second.

Compared with AACCCTGC, CGTAGCTA is higher in “PBM E-score” value: -0.225 for the first, -0.214 for the second.

Going from GTACCTAA to AACTCTGG, the “PBM E-score” value falls from -0.0871 to -0.224.
